The list shows a part of the results. Sequences were assembled here from the parent chain. Values near 0.05 are background.
B1: TEV protease; numbered along this chain (parent)
chain: MGESLFKGPRDYNPISSSICHLTNESDGHTTSLYGIGFGPFIITNKHLFRRNNGTLVVQSLHGVFKVKDTTTLQQHLVDGRDMIIIRMPKDFPPFPQKLKFREPQREERICLVTTNFQTKSMSSMVSDTSCTFPSGDGIFWKHWIQTKDGQCGSPLVSTRDGFIVGIHSASNFTNTNNYFTSVPKNFMELLTNQEAQQWVSGWRLNADSVLWGGHKVFMVKPEEPFQPVKEATQL

Variants of: B1
Assay: raw area under fraction-flipped curve 0-4 h after induction (AUC4h, not background-subtracted), DNA-recorder readout of cleavage of the substrate (dimensionless); higher = more cleavage of the substrate by the protease variant
Details: temperature: 34 °C; time window: 0-4 h after rhamnose induction
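Also: Bxb1 expression induced with 0.2% (w/v) L-rhamnose at OD600 near 0.5, cultures sampled hourly, flipped fraction per protease–substrate barcode pair counted by paired-end Illumina sequencing.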

| Variant | area with substrate EDLYFQS | area with substrate EELYFQS | area with substrate EFLYFQS | area with substrate EKLYFQS | area with substrate ELLYFQS | area with substrate EQLYFQS | area with substrate ERLYFQS | area with substrate ETLYFQS | area with substrate EVLYFQS | area with substrate EWLYFQS | area with substrate EGLYFQS | area with substrate EILYFQS | area with substrate EYLYFQS | area with substrate EHLYFQS | area with substrate EPLYFQS | area with substrate ESLYFQS | area with substrate EMLYFQS |
| --- | --- | --- | --- | --- | --- | --- | --- | --- | --- | --- | --- | --- | --- | --- | --- | --- | --- |
| V220I | 0.103 | 0.101 | 0.0665 | 0.0958 | 0.0826 | 0.0868 | 0.102 | 0.119 | 0.106 | 0.0859 | – | – | – | – | – | – | – |
| D82Y | 0.0422 | 0.0715 | – | 0.0597 | – | – | 0.0537 | 0.0697 | 0.0458 | – | 0.0606 | 0.0472 | 0.0624 | – | – | – | – |
| G150K | 0.0583 | 0.0534 | – | 0.0665 | – | – | 0.0649 | 0.0472 | 0.0577 | 0.0654 | – | 0.0558 | 0.0694 | 0.0475 | 0.0546 | 0.0569 | – |
| D91H | 0.12 | – | – | 0.136 | 0.085 | 0.108 | 0.109 | 0.114 | 0.104 | 0.0717 | – | 0.0977 | – | 0.113 | 0.129 | 0.111 | – |
| D91A | 0.163 | 0.143 | – | 0.113 | – | – | 0.124 | – | 0.149 | 0.084 | – | – | – | – | – | 0.0979 | 0.119 |
| K100R | 0.124 | – | – | 0.119 | – | – | 0.0864 | 0.126 | 0.1 | 0.0915 | 0.103 | 0.0886 | – | 0.141 | – | 0.0984 | 0.111 |
| K221Q | 0.136 | 0.121 | 0.124 | – | – | 0.109 | – | – | 0.0797 | – | – | 0.0926 | 0.0759 | 0.103 | – | 0.0941 | 0.0795 |
| V200N | 0.0963 | 0.08 | 0.0617 | – | 0.0596 | – | 0.0617 | – | – | 0.0668 | 0.0842 | 0.0609 | – | 0.0682 | – | 0.0548 | – |

— the supplement of paper PMC12217912
